Laboratory results as given in PMC6919601, “Identification of Plasmodium dipeptidyl aminopeptidase allosteric inhibitors by high throughput screening” (PLoS ONE, 2019).
In all, about 110,000 compounds went through this assay and about 230 (0.21%) showed an effect of 50% or more. This is one part of the list.

Each compound was assayed against DPAP1 (Plasmodium falciparum, UniProt Q8IIJ9) (assay: primary screen, percent inhibition; read by cleavage of a fluorogenic dipeptide substrate; higher = more effect of the substance).
Design: species or system P. falciparum D10 trophozoite lysates; single well
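Note: 30 min substrate incubation versus DMSO and 10 µM JCP410 controls.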

Sequence of DPAP1 (Q8IIJ9 whole entry, looked up): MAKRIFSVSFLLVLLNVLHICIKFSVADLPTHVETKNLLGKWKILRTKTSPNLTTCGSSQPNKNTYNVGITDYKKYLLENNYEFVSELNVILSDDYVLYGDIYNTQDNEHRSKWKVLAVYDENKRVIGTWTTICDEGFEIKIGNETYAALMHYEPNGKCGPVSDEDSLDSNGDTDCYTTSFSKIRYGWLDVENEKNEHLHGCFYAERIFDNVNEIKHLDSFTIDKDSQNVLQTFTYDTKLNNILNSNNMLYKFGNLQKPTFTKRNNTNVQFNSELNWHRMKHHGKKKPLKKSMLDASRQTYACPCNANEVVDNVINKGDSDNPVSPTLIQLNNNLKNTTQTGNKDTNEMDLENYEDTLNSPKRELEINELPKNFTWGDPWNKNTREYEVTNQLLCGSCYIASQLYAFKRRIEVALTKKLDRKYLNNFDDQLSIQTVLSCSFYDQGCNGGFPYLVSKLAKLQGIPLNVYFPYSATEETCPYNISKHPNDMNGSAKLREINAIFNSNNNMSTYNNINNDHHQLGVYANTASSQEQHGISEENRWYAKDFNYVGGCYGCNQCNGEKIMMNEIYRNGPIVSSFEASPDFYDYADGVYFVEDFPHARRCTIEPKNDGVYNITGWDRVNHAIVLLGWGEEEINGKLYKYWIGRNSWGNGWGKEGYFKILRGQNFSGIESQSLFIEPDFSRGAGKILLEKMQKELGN

Row | SMILES | % Inhibition @ 10 uM
1 | O=C1NC(=O)/C(=C\c2ccc(C(=O)O)cc2)N1 | -1.25%
2 | Cc1ccc(S(=O)(=O)N2CCC2)cc1 | -2.51%
3 | CCC(=O)N1C(C(=O)NCc2ccc(F)cc2)CSC12CCN(C)CC2 (stereo not drawn) | -5.15%
4 | Cc1nc2nc(NC(=O)Cc3ccccc3)nn2c(C)c1Cl | 2.05%
5 | COc1cccc(CN2CCN(Cc3cccc(Cl)c3)CC2)c1 | 4.37%
6 | CCn1cc(-c2c(C#N)c(N)nc(OC)c2C#N)c(C)n1 | 2.77%
7 | CCCCCc1c(C)nc(N2CCN(Cc3ccc4c(c3)OCO4)CC2)nc1O | 3.36%
8 | CCOC(=O)C1=C(O)/C(=C\c2ccccc2OC)N=C1C | -1.6%
9 | CCO/C(O)=C1\C(C)=NC(=S)NC1c1ccc(Cl)c(Cl)c1 (stereo not drawn) | -5.28%
10 | O=C(c1coc(=O)c2ccccc12)N1CCN(Cc2ccccc2)CC1 | 4.33%
11 | Cc1cc(N2C(=O)c3ccc(C45CC6CC(CC(C6)C4)C5)cc3C2=O)no1 | 0.032%
12 | O=C(Nc1cccc(NC(=O)c2ccc(Br)o2)n1)c1ccc(Br)o1 | 2.79%
13 | COc1ccccc1CN1CCC(CNS(=O)(=O)c2cc(-c3cc(C)no3)ccc2C)CC1 | -5.69%
14 | Cc1cc(NC2(C(F)(F)F)N=C3SCCN3C2=O)no1 (stereo not drawn) | -5.2%
15 | Cc1ccc(SCCC(=O)NCC2CCCO2)cc1 (stereo not drawn) | 0.145%
16 | Cc1ccc2oc(-c3ccc(C)c(NC(=O)c4ccccc4)c3)nc2c1 | -4.31%
17 | CCN(CCN(C)C)Cc1ccc(OC)c(OC)c1 | -1.78%
18 | Cc1ccc(CNC(=O)C2CCN(S(=O)(=O)c3cccc4nsnc34)CC2)cc1 | -1.54%
19 | CCC(C)NC(=O)C1CC(=O)N(Cc2ccc(OC)cc2)C1 (stereo not drawn) | -1.79%
20 | CCc1ccc(CNCc2c(C(=O)O)n(Cc3ccccc3F)c3ccccc23)cc1 | 2.24%
21 | Nc1nc2ccc(Cc3nc4ccccc4[nH]3)cc2s1 | 7.02%
22 | COc1ccc(C/N=C/C2C(=O)N(c3nc4ccccc4s3)N=C2c2ccccc2)cc1 (stereo not drawn) | 3.59%
23 | Oc1cc(CN2CCCCCC2)c(O)cc1CN1CCCCCC1 | -5.96%
24 | CCn1c(C)cc(/C=C2\SC(Nc3ccccc3)=NC2=O)c1C | -1.46%
25 | CN(CC(=O)NCCc1ccccc1)S(=O)(=O)c1cccs1 | 0.559%
26 | CCN1CCN(C(=O)c2cc(-c3ccc(C)cc3)nc3ccccc23)CC1 | 0.826%

Row | SMILES | % Inhibition @ 10 uM
27 | CC(NC(=O)Cc1noc2ccccc12)c1ccccc1 (stereo not drawn) | 0.943%
28 | CN(C(=O)C1CCC(CNS(=O)(=O)c2cccc3cccnc23)CC1)C1CCCCC1 (stereo not drawn) | 2.6%
29 | COc1ccc(CCNC(=O)C2CCN(S(=O)(=O)c3c[nH]cn3)CC2)cc1OC | 1.23%
30 | Cc1cc2c(cc3c(SCc4ccccc4F)nnc(C)n32)o1 | 2%
31 | Cc1ccc(OCCCN2CCOCC2)cc1C | -4.95%
32 | Cc1ccc(S(=O)(=O)NCC2c3ccccc3CCN2S(=O)(=O)c2ccc(C)cc2)cc1 (stereo not drawn) | -3.75%
33 | O=C(Nc1c(C(=O)N2CCN(c3ncccn3)CC2)oc2ccccc12)C1CCCCC1 | -1.25%
34 | Cc1c2cnn(CC(=O)N3CCN(C(=O)c4ccco4)CC3)c(=O)c2c(C)n1Cc1ccccc1 | 1.22%
35 | Cc1cccn2c(=O)c3cc(C(=O)NC4CCCCC4)c(=N)n(CCc4ccccc4)c3nc12 | 0.279%
36 | Cc1cc(COc2ccccc2OCCN2CCN(C)CC2)no1 | 2.14%
37 | CCOc1cc(C(=O)N(Cc2nc(-c3ccc(Cl)cc3)no2)C(C)C)cc(OCC)c1OCC | 2.78%
38 | CCOc1ccc(S(=O)(=O)N(CC(=O)NC2CC3CCC2C3)c2ccccc2)cc1 (stereo not drawn) | -0.992%
39 | O=C(Cn1c(=O)oc2ccccc21)c1ccccc1 | -8.64%
40 | COc1cc2c(cc1OC)C(COc1ccccc1OC)N(C(=O)CSCc1ccccc1)CC2 (stereo not drawn) | 3.8%
41 | O=C(NCCc1ccccc1)c1cc(Br)cs1 | 0.219%
42 | O=C(CSc1nc2ccsc2c(=O)n1Cc1ccccc1)N1CCCC1 | 3.86%
43 | Cc1nc2nc(SCC(=O)NCCc3ccccc3)nn2c(C)c1Cc1ccccc1 | 4.36%
44 | c1ccc2c3c([nH]c2c1)C(c1ccc2c(c1)OCO2)NCC3 (stereo not drawn) | 1.21%
45 | CCc1n[nH]c(SCC(=O)c2ccc(OC)cc2)n1 | 5.59%
46 | O=Cc1cn(Cc2nc(-c3ccc(Br)cc3)no2)c2ccccc12 | -3.06%
47 | CC(=O)NCCOc1ccccc1F | -2.02%
48 | O=C(CN1CCN(Cc2ccc3c(c2)OCO3)CC1)NCc1cccs1 | 6.31%
49 | CCCCCn1c(CN2CCN(C(=O)OCC)CC2)nc2c1c(=O)n(C)c(=O)n2C | 2%
50 | Cc1sc2[nH]c(=S)n(-c3ccccc3)c(=O)c2c1C | 72.2%
51 | O=C(NCC1CCCO1)c1ccccc1F (stereo not drawn) | 4.54%
